# Results reported in publication PMC4336329 (PLoS ONE, 2015).
# In all, about 310,000 compounds went through this assay and about 14,000 (4.5%) showed an effect of 50% or more. Effects have a minus sign here. Some of the results follow.
# Molecular target: human ether-à-go-go-related gene (hERG) potassium channel (human, UniProt Q12809)
# Assay: primary screen, population patch clamp on CHO cells stably expressing hERG
# 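Further: peak tail current of the secondary pulse compared with the same well before compound.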
# Chain of human ether-à-go-go-related gene (hERG) potassium channel (Q12809 whole entry, looked up): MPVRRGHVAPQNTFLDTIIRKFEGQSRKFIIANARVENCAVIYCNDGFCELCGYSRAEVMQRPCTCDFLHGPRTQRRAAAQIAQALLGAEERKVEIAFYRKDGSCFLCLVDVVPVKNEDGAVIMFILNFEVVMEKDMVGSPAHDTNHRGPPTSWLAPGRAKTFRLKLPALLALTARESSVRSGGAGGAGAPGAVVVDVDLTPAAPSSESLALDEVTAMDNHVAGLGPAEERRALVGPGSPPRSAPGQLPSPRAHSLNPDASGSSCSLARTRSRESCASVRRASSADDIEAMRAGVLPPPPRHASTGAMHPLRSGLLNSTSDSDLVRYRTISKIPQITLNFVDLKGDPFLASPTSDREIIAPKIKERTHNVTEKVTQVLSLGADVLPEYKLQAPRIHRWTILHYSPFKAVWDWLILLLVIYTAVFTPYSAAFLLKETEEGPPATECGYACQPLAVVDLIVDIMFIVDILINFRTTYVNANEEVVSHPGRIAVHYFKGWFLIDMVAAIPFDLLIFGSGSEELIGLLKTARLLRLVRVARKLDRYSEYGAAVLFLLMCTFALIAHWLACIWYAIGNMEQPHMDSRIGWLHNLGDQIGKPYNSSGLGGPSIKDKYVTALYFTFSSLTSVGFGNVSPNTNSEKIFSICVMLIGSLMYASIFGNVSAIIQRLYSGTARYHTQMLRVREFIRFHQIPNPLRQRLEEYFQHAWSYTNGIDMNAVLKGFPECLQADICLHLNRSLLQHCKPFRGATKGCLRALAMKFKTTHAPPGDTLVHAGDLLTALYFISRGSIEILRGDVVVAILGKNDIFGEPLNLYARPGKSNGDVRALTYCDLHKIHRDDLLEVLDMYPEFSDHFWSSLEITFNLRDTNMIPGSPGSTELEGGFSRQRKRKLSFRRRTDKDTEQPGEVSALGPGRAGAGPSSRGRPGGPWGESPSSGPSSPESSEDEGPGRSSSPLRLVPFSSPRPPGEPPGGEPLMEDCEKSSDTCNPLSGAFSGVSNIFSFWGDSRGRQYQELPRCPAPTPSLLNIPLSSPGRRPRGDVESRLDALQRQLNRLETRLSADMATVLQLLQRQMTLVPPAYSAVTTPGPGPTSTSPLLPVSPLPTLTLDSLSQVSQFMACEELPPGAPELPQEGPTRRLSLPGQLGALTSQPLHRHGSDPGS
row,Compound,"hERG current change (%, negative = inhibition) at 10uM"
1,CCOC(=O)C1CCN(C(=O)COC(=O)C2CCN(S(=O)(=O)c3ccc4c(c3)OCCO4)CC2)CC1,-24.8%
2,CCCCCCSc1cccc(-c2nc3cc(C)ccn3c2NC2CCCCC2)c1.O=C(O)C(F)(F)F,0.642%
3,CN(C(=O)c1ccnn1C)C1CCCN(Cc2ccccc2F)C1 (centres unmarked),15.2%
4,Cc1cc(-n2c(C)cc(C(=O)COc3ccc([N+](=O)[O-])cc3)c2C)no1,-20.5%
5,Cn1c2ccccc2c2cc(C(=O)N3CCN(CCO)CC3)sc21,-1.19%
6,CCOc1ccc(NC(=O)CCS(=O)(=O)c2ccc3c(c2)CCCN3C(=O)CC)cc1,-21.4%
7,O=C(COc1coc(CN2CCc3ccccc3C2)cc1=O)Nc1ccc(F)cc1,3.91%
8,CC(C)CCN1CCN(Cc2nc(-c3ccccc3)cs2)CC1CCO (centres unmarked),-62.7%
9,COc1ccc(/C(O)=C(\C#N)c2nc3ccccc3n2C)cc1OC,9.59%
10,CCOC(=O)N1CCC(c2cc(=O)n3[nH]cc(C(=O)OC)c3n2)CC1,9.34%
11,O=C(CN1CCOCC1)Nc1ccccc1Sc1ccc(Cl)cc1,-44.1%
12,COc1ccc(CCN(C)C(=O)CCCN2C(=O)c3cccc4cccc(c34)C2=O)cc1OC,-35.5%
13,Cc1nc2ccc(NC(=O)NCCO)cc2s1,5.11%
14,O=C(CSC1=NCCS1)NC(NC(=O)CSC1=NCCS1)c1ccccc1,18.6%
15,COc1ccc(OC)c(C(=O)NC(CC(N)=O)c2ccc(N3CCN(c4ccc(F)cc4)CC3)c([N+](=O)[O-])c2)c1 (centres unmarked),9.75%
16,Cc1cccc(OCCCN2CCOCC2)c1,13.5%
17,Cc1cc(C)nc(Oc2ccc(Br)cc2Br)n1,19.1%
18,COC(=O)c1ccc(C(=O)OCCCc2nc3ccc(N)cc3[nH]2)cc1,-8.74%
19,COc1ccccc1CNc1ncccc1[N+](=O)[O-],-1.85%
20,O=C(NC1CCCCC1)c1cc(-c2ccc(F)cc2)on1,22.1%
21,CC1C(=O)N2CCCc3cc(NC(=O)COc4ccc(Cl)cc4)cc1c32 (centres unmarked),-40.2%
22,CCOC(=O)N1CCN(c2ccccc2OC)CC1,15.2%

row,Compound,"hERG current change (%, negative = inhibition) at 10uM"
1,Cn1c(=O)c2c(nc(CN3CCN(c4ccc(F)cc4)CC3)n2CCN2CCOCC2)n(C)c1=O,-42.3%
2,CC[N+]1(CC(O)COC2CC(C)CC(C)(C)C2)CCOCC1.[I-] (centres unmarked),21.9%
3,CCOc1ccc(N/C(SCc2cccc([N+](=O)[O-])c2)=C(/C#N)C(N)=O)cc1,-59.1%
4,Cc1ccc(NC(=S)NNC(=S)Nc2cccc(C(F)(F)F)c2)cc1,18.6%
5,Fc1ccc(CSc2nnc(-c3cnccn3)n2Cc2ccco2)cc1,-52.2%
6,O=C(Nc1nccs1)C1CCCN(S(=O)(=O)c2cccnc2)C1 (centres unmarked),1.78%
7,COc1ccc(N2CC(NC(=O)NCC(C)C)CC2=O)cc1 (centres unmarked),1.59%
8,O=C(C1CC(=O)N(c2ccccc2)C1)N1CCN(C2=NS(=O)(=O)c3ccccc32)CC1 (centres unmarked),5.68%
9,COc1cccc(C(=O)NCCN2CCN(c3ccc(Cl)cc3)CC2)c1,-49.8%
10,CSCCC(NS(=O)(=O)c1cccs1)C(=O)NCc1ccccc1 (centres unmarked),2.35%
11,O=C(NCCN1CCOCC1)c1cc(-c2ccco2)on1,-4.41%
12,CCOC(=O)[C@@H]1[C@H]2COc3ccccc3[C@H]2N2C(=O)N(c3ccc(Cl)cc3)C(=O)[C@@]12C,3.7%
13,CC(C)(C)c1nnc(NC(=O)NS(=O)(=O)c2ccccc2)s1,19.7%
14,COc1ccc([N+](=O)[O-])c(OC)c1C(=O)Nc1ccc(F)cc1F,-0.148%
15,CC(=O)COc1coc(CN2CCN(c3ccc(F)cc3)CC2)cc1=O,15.5%
16,Cc1ccc(C)c(NC(=O)Nc2ccc3c(c2)OCO3)c1,8.8%
17,CCOCCCNCc1cccc(OCc2ccc(F)cc2)c1,-50.1%
18,Cc1nn(Cc2cccc(C(=O)N3CCCC(C)C3)c2)c(C)c1[N+](=O)[O-] (centres unmarked),-17%
19,Cc1[nH]c2ccccc2c1/C=N/NC(=O)c1cc(C(C)(C)C)[nH]n1,-20.6%
20,NC(N)=N/N=C/c1ccc(N(c2ccccc2)c2ccccc2)cc1.O=[N+]([O-])O,-50.8%
21,Cc1ccc(-c2csc(N)n2)s1,8.83%
22,CCOC(=O)[C@H]1[C@H]2COc3ccc(Br)cc3[C@H]2N2C(=O)CNC(=O)[C@@]12C,6.03%

row,Compound,"hERG current change (%, negative = inhibition) at 10uM"
1,O=C(CCc1nc2ccccc2c(=O)[nH]1)N1CCN(S(=O)(=O)c2ccc(F)cc2)CC1,-27.6%
2,COc1ccc2oc(=O)c(-c3csc(Nc4cccc(O)c4)n3)cc2c1,25.8%
3,O=C(CSc1nc2ccccc2[nH]1)N/N=C/C=C/c1ccccc1[N+](=O)[O-],-26.6%
4,Cn1c(Cl)cnc1C(O)c1ccccc1 (centres unmarked),-0.22%
5,CCOCCCNC(=O)CCC(=O)NNc1nc2ccccc2c2nc(C)nn12,-0.277%
6,CCOC(=O)Cc1csc(NC(=S)NC(=O)c2ccc(C)cc2)n1,17.3%
7,Nc1ccc2nc(-c3cccc(-c4nc5ccc(N)cc5[nH]4)c3)[nH]c2c1,5.5%
8,Cc1c(S(=O)(=O)NCCc2ccccc2)c(=O)n(C)c(=O)n1C,-1.25%
9,Cn1nnnc1SCc1c(F)cccc1F,5.34%
10,N#C/C(=C(/O)COC(=O)COc1ccc(Cl)cc1)c1nc2ccccc2[nH]1,16%
11,COc1ccc(-c2noc(CN3CCN(c4ccccc4)CC3)n2)cc1,3.94%
12,COc1cc(C(=O)N(CCc2ccccc2)C2CC3CCC(C2)N3C)cc(OC)c1OC.Cl.O (centres unmarked),-38.3%
13,Cn1c(CC(=O)Nc2cccc(Cl)c2Cl)nnc1SCC(=O)NC1=NCCS1,17.8%
14,O=C(CSc1ccc(-c2ccc(F)cc2)nn1)N1CCN(c2ccccc2)CC1,-12.7%
15,CC(=O)O.c1ccc2c(c1)NC1(CCCCCC1)n1c-2nc2ccccc21,-19.9%
16,CC(/C=N/Nc1nc(C)cc(C)n1)=C\c1ccc(C(C)C)cc1,-6.34%
17,CCOC(=O)[C@H]1[C@H]2COc3ccc(Cl)cc3[C@@H]2N2C(=O)c3ccc(Cl)cc3NC(=O)[C@@]12C,2.36%
18,CCCCNC(=O)c1ccc(CS(=O)(=O)c2ccc(OC)cc2)o1,-7%
19,Cc1cccc2sc(N(CCCN(C)C)C(=O)c3cc4ccccc4oc3=O)nc12.Cl,-54.6%
20,Cc1cc(N)n(-c2ccc(C)c(C)c2)n1.Cl,19.4%
21,COc1cc(NC(=O)COC(=O)CSc2ccccc2F)c(C)cc1[N+](=O)[O-],15.9%
22,COC(=O)c1ccc(C23CC4(C2)[C@H](CN(CC2CCCCC2)[C@@H]4c2ccccc2)C3c2ccc(C(F)(F)F)cc2)cc1 (some centres unmarked),6.02%

row,Compound,"hERG current change (%, negative = inhibition) at 10uM"
1,CCOc1ccc(NC(=O)CSc2nncc(=O)n2N)cc1,23.2%
2,CCc1ncc(C(=O)c2ccc(OC)cc2)n1C,0.711%
3,Cn1ccnc1C(=O)c1cccc(Br)c1,-26%
4,Cc1nc2ccccn2c1C(=O)/C=C/c1ccc(F)cc1,-11.6%
5,Cc1nnc(NC(=O)CSc2nnc(CCNC(=O)c3ccccc3F)n2C)s1,2.77%
6,CSc1oc(-c2ccc(F)cc2)nc1S(=O)(=O)c1ccccc1,-1.15%
7,O=C(c1ccc(OC2CCN(C/C=C/c3ccccc3)CC2)cc1)N1CCCC1,-75.7%
8,Cc1cccc(N2CC(C(=O)Nc3ccc(S(=O)(=O)N4CCOCC4)cc3)CC2=O)c1 (centres unmarked),2.67%
9,COc1ccc(CC(=O)N2CCN=C2SCc2ccc([N+](=O)[O-])cc2)cc1,-52.2%
10,CCOc1ccc(N=C(NN)c2ccc3ccccc3n2)cc1,3.33%
11,Cc1cccc(-n2ccnc2SCC(=O)Nc2nnc(C)s2)c1,-25.8%
12,CCOC(=O)c1sc(=NC(=O)c2c(F)cccc2F)n(C)c1C,22.2%
13,CC(=O)Nc1ccc(NC(=O)[C@@H](NC(=O)c2ccccc2F)C(C)C)cc1,14.1%
14,Cc1ccccc1CS(=O)(=O)Cc1ccc(C(=O)NCc2ccccn2)o1,17.4%
15,CN(Cc1ccccc1)C(=O)c1ccc(NC(=O)Cc2cccc(NC(=O)C3CCCN(C(=O)C4CCC4)C3)c2)cc1 (centres unmarked),1.51%
16,COc1ccccc1-c1coc2cc(O)cc(O)c2c1=O,9.89%
17,O=C(Nc1ncccc1O)c1cc2ccccc2o1,22.3%
18,O=C(NCc1ccccc1)C(c1ccncc1)N(C(=O)c1csnn1)c1ccccc1F (centres unmarked),5.56%
19,C=CCNc1ncnc2sc(SC)nc12,12.3%
20,CC1CCCCN1C(=O)Cn1c(=O)n(CCC(=O)NCc2ccco2)c(=O)c2sccc21 (centres unmarked),1.58%
